Experimental findings from paper PMC4336329 (PLoS ONE, 2015) are described below.

In all, about 310,000 compounds went through this assay and about 14,000 (4.5%) showed an effect of 50% or more. The effect is printed as a negative number. Some of the results follow.
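Also: peak tail current of the secondary pulse compared with the same well before compound.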

In this test the target is human ether-à-go-go-related gene (hERG) potassium channel (human, UniProt Q12809). In words: primary screen, population patch clamp on CHO cells stably expressing hERG.
Sequence of human ether-à-go-go-related gene (hERG) potassium channel (Q12809 whole entry, looked up): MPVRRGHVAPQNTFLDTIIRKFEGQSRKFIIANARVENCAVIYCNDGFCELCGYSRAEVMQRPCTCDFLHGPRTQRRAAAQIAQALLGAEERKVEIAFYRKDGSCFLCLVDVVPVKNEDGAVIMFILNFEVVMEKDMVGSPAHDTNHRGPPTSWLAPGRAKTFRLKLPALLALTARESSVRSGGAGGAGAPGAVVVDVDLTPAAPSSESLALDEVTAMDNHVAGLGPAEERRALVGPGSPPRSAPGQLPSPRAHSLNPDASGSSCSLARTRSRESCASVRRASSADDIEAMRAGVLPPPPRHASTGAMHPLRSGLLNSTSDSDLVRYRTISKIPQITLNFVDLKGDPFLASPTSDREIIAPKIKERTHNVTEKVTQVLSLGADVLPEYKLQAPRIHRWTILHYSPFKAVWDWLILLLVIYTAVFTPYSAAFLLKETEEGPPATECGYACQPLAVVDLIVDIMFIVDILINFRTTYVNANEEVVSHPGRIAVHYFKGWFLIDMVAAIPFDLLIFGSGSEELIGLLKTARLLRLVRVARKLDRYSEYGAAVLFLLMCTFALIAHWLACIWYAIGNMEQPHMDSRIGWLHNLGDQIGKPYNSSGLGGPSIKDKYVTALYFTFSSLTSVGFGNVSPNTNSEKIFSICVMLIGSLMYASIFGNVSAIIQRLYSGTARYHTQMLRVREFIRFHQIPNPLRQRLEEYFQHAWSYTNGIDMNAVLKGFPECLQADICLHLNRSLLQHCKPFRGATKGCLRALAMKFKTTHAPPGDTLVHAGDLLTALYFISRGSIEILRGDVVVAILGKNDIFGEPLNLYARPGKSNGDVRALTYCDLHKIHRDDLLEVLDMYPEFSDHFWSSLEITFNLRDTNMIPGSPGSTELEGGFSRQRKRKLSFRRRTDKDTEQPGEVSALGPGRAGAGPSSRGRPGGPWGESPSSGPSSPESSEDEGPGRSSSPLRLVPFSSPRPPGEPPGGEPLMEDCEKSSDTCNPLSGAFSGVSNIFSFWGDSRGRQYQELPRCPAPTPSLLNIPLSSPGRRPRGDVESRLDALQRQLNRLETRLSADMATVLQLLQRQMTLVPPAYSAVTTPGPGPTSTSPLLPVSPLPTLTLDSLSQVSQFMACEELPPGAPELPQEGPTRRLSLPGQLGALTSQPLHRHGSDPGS
Turning to `CC(=O)N=c1n(C)c2ccccc2n1CCOc1ccccc1`, the “hERG current change (%, negative = inhibition) at 10uM” value amounted to 3.65%.
Regarding `O=C(Nc1ccccc1C(=O)O)c1cccc(N2C(=O)c3ccccc3C2=O)c1`, the “hERG current change (%, negative = inhibition) at 10uM” value was 11.9%.
Turning to `Cc1ccc(S(=O)(=O)NCC(=O)N(CC(=O)NC2CCCC2)CC2CCCO2)cc1` (stereo not shown), the “hERG current change (%, negative = inhibition) at 10uM” value stood at 10.5%.
Take `Cc1cc(NS(=O)(=O)c2ccc(NC(=O)COc3ccc(Cl)cc3Cl)cc2)no1`: the “hERG current change (%, negative = inhibition) at 10uM” value was 1.89%.
As to `S=C(Nc1ccccc1)Nc1nc2ccccc2n1CCOc1ccc(Br)cc1`, the “hERG current change (%, negative = inhibition) at 10uM” value is recorded as 11.6%.
To `Cc1ccc(CNC(=O)CCNS(=O)(=O)c2cccc3nonc23)cc1` belongs 15.6%; to `CCOc1ccc(/C=N/Nc2ccccc2)cc1`, 17.6%; to `O=[N+]([O-])c1cc(S(=O)(=O)N2CCOCC2)ccc1N1CCCC1`, -6.06%.
For the compound `COc1ccccc1Oc1ccc2c(c1)C(=O)N(c1ccc(Br)c3cccnc13)C2=O`, the “hERG current change (%, negative = inhibition) at 10uM” value is -2.37%.
`C=CCN(CC=C)C(=O)C1CC(=O)N(c2ccc(Br)cc2)C1` (stereo not shown): the “hERG current change (%, negative = inhibition) at 10uM” value is -59.2%.
With `C=CCOC(=O)c1ccc(-n2cncn2)nc1`, the “hERG current change (%, negative = inhibition) at 10uM” value was -4.47%.
As for `COc1cccc(NC(=O)CSc2nc3ccccc3c3nc4ccccc4n23)c1`, the “hERG current change (%, negative = inhibition) at 10uM” value is listed as -7.77%.
Regarding `CCCn1c(=O)[nH]c(=O)c2c1nc(-c1cccs1)n2CCOC`, the “hERG current change (%, negative = inhibition) at 10uM” value is -6.05%.
On to `Cc1ccc(N(CC(=O)NCCSCc2ccco2)S(=O)(=O)c2ccc(C)cc2)cc1`, for which the “hERG current change (%, negative = inhibition) at 10uM” value is reported as -69.7%.
With `O=C1c2ccccc2C(=O)N1CCSc1n[nH]c(=S)s1`, the “hERG current change (%, negative = inhibition) at 10uM” value came to 18.4%.
The result for `CCOC(=O)Cc1csc(NC(=O)CSc2nc(=O)[nH]c3c2CCCC3)n1` reads -0.299%; that for `COc1cc(NC(=O)C2CCCN(S(=O)(=O)c3ccc4[nH]c(=O)ccc4c3)C2)cc(OC)c1` (stereo not shown), 14.5%; that for `COc1ccccc1-c1nnc2sc(C3CCCCC3)nn12`, -31.5%.
To `COc1cc(-c2nnc(-c3ccco3)o2)ccc1OCc1ccccc1` belongs -11.1%; to `O=C(C[n+]1cc(Br)cc2ccccc21)c1ccc(Br)cc1.[Br-]`, -83.3%; to `CCCc1cc(=O)oc2cc(OC(C)C(=O)NCCCn3ccnc3)ccc12` (stereo not shown), -42.1%.
As to `c1ccc2c(c1)NC1(CCCCC1)n1c-2nc2ccccc21`, the “hERG current change (%, negative = inhibition) at 10uM” value is recorded as -4.02%.
The result for `CN(C)S(=O)(=O)c1ccc(C(=O)N2CCC(c3nc4ccccc4o3)CC2)cc1` reads -37%; that for `O=C(Cc1csc(NC(=O)Nc2cccc(Cl)c2)n1)NCc1ccccn1`, -5.14%; that for `CC(=O)N1c2c(cc(Br)cc2S(=O)(=O)NCc2ccc(C)cc2)CC1C` (stereo not shown), -59.5%.
In the case of `Cc1cccc(NC(=O)c2cccc(N3C(=O)C4C5C=CC(C6CC56)C4C3=O)c2)c1` (stereo not shown), the “hERG current change (%, negative = inhibition) at 10uM” value is -15%.
With `O=C(CN1N=C(c2ccc(Cl)cc2)CCC1=O)NCc1cccs1`, the “hERG current change (%, negative = inhibition) at 10uM” value is on record as -42.3%.
The result for `O=C(Nc1ccnc(-c2cccnc2)n1)c1ccc(F)cc1` reads -4.08%; that for `O=C(CNCc1ccc(F)cc1)Nc1ccc(C(=O)N2CCCCC2)cc1.O=C(O)C(=O)O`, 2.45%; that for `CCc1ccc(N2CCN(C(=O)c3ccc4c(c3)OCO4)CC2)cc1`, -50.3%.
In the case of `Cc1cccnc1NC(=O)CNC(=O)c1cccs1`, the “hERG current change (%, negative = inhibition) at 10uM” value is listed as -8.89%.
With `C/C(=N\NS(=O)(=O)c1ccc(Br)cc1)c1ccncc1`, the “hERG current change (%, negative = inhibition) at 10uM” value is -6.01%.
On to `N#CC1(c2c(O)nc3n(c2=O)CCCS3)CCCCC1`, for which the “hERG current change (%, negative = inhibition) at 10uM” value was determined as 16%.
`Cc1cc(NS(=O)(=O)c2ccc(NC(=O)Cc3cccs3)cc2)no1`: the “hERG current change (%, negative = inhibition) at 10uM” value stood at 6.02%.
As to `COc1ccc(-c2cc(=O)oc3cc4occ(C)c4cc23)cc1`, the “hERG current change (%, negative = inhibition) at 10uM” value is on record as -7.05%.
As for `Cc1cc2c(n1-c1ccc(Cl)cc1)CC(C)(C)CC2=O`, the “hERG current change (%, negative = inhibition) at 10uM” value was -11.1%.
For the compound `COc1ccc(OCC(=O)N2CCN(C(=O)COc3ccccc3)CC2)cc1`, the “hERG current change (%, negative = inhibition) at 10uM” value was -47.5%.
To `O=C(COc1ccc(Br)cc1Cl)NC(=O)Nc1ccc2c(c1)OCCO2` belongs 11.3%.
As to `CC(C)(C)c1cc(C(=O)NNc2cccc(Cl)c2)n(Cc2ccccc2)n1`, the “hERG current change (%, negative = inhibition) at 10uM” value is on record as -4.28%.
With `O=C(O)c1ccccc1SC1CC(=O)N(c2ccccc2)C1=O` (stereo not shown), the “hERG current change (%, negative = inhibition) at 10uM” value was -2.1%.
In the case of `COc1ccc(C(=O)NCCc2ccc(S(N)(=O)=O)cc2)cc1OC`, the “hERG current change (%, negative = inhibition) at 10uM” value is reported as -4%.
As to `CCC(=O)NC(C)c1nc2ccccc2n1C` (stereo not shown), the “hERG current change (%, negative = inhibition) at 10uM” value turned out to be 1.29%.
As for `Cc1cc(=O)oc2c(C)c(OC(C)C(=O)NCCN3CCOCC3)ccc12` (stereo not shown), the “hERG current change (%, negative = inhibition) at 10uM” value worked out at 22.2%.
On to `O=C(NCc1cccc(C(F)(F)F)c1)C1CC(c2ccccc2C(F)(F)F)=NO1` (stereo not shown), for which the “hERG current change (%, negative = inhibition) at 10uM” value is on record as -6.91%.
With `O=C(N/N=C/c1ccc(F)c(F)c1)c1cc2c(s1)-c1ccccc1CC2`, the “hERG current change (%, negative = inhibition) at 10uM” value is 10.6%.
As to `O=C(O)CS(=O)(=O)c1ccc(Oc2ccc(S(=O)(=O)CC(=O)O)cc2)cc1`, the “hERG current change (%, negative = inhibition) at 10uM” value was determined as 14.3%.
With `Fc1cccc(CSc2ncnc3c2oc2ccccc23)c1`, the “hERG current change (%, negative = inhibition) at 10uM” value is recorded as 4.25%.
Consider `O=S(=O)([O-])CCC[n+]1ccc(Oc2ccccc2)cc1`, for which the “hERG current change (%, negative = inhibition) at 10uM” value is 14.4%.
On to `O=C(c1ccc(N2CN(C(=O)c3ccco3)c3nc4ccccc4nc32)cc1)N1CCOCC1`, for which the “hERG current change (%, negative = inhibition) at 10uM” value is reported as -10.1%.
Take `O=C(CCSc1ccccc1)Nc1nc2c(s1)COc1ccccc1-2`: the “hERG current change (%, negative = inhibition) at 10uM” value is listed as -4.22%.
With `O=C(O)/C=C/c1ccc(S(=O)(=O)N(CCO)CCO)cc1`, the “hERG current change (%, negative = inhibition) at 10uM” value is 2.91%.
As to `O=C(NCC[C@@H]1C[C@@H]2C=C[C@H]1C2)c1cc(COc2ccc(F)cc2F)on1`, the “hERG current change (%, negative = inhibition) at 10uM” value is 7.21%.
To `Cc1ccc(-c2nn(-c3ccccc3)cc2C(=O)Nc2ccc(C)c(S(=O)(=O)N3CCOCC3)c2)cc1` belongs 7.11%.
On to `Cl.Fc1cccc(Nc2c3c(nc4ccccc24)CCC3)c1`, for which the “hERG current change (%, negative = inhibition) at 10uM” value is -68.2%.
In the case of `CC(C)CC(=O)NC(c1cccs1)c1ccc2cccnc2c1O` (stereo not shown), the “hERG current change (%, negative = inhibition) at 10uM” value is -11.1%.
